Whole data set: some 4,100 sequences, median “relative CpG methylation activity (normalised to average over all NNNCGNNN flanks)” near 0.94, cut for the highest 2% near 1.9. The list shows a part of the results.
Each sequence was assayed against DNMT3B catalytic domain (mouse) (UniProt O88509) (assay: relative CpG methylation activity (normalised to average over all NNNCGNNN flanks) (relative (1 = mean)); higher = more methylation of the central CpG). Settings: system: in vitro, murine catalytic domain; CpG state: hemimethylated substrate pool; residues: 558-859.
Chain of UniProt O88509 (O88509 558-859): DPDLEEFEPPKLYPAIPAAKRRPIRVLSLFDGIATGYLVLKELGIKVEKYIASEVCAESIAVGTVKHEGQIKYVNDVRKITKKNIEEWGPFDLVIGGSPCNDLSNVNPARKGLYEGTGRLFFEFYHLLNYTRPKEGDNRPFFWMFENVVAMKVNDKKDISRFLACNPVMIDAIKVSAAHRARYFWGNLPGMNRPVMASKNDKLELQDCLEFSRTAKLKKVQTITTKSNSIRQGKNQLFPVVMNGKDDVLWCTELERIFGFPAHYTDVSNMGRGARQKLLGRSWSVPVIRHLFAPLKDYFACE
Method in brief: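 Pooled dsDNA substrates with a central CpG inside 10 random flanking nucleotides were methylated by murine DNMT3A or DNMT3B catalytic domain with 0.8 mM S-adenosyl-L-methionine in HEPES pH 7.5 buffer for 60 min at 37 °C. The DNA then went through proteinase K, BsaI-HFv2 digestion, hairpin ligation, bisulfite conversion and two-step PCR before Illumina sequencing. Relative methylation activity is the average methylation of each context with three flanking bases per side, divided by the mean over all contexts. Each experiment had two independent repeats.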

| Sequence | relative CpG methylation activity |
| --- | --- |
| GTTCGCAC | 0.91 |
| CGGCGTCA | 0.45 |
| CACCGTAC | 0.99 |
| AAGCGTCT | 0.966 |
| CTACGTAG | 0.804 |
| CCGCGAAT | 0.806 |
| TACCGATT | 1.29 |
| ATGCGGGG | 1.14 |
| CCTCGGAG | 0.787 |
| GCGCGCCT | 0.748 |
| CCCCGTGT | 0.336 |
| CATCGGAT | 0.93 |
| GGTCGCTA | 0.694 |
| CCCCGCGG | 0.703 |
| GATCGTCA | 0.485 |
| ACTCGGAT | 0.587 |
| AATCGCTC | 0.903 |
| CCGCGATA | 1.11 |
| GCACGAGA | 1.62 |
| CAGCGACG | 0.851 |
| GTACGTGC | 1.1 |
| TGCCGAGC | 1.58 |
| GTACGCCC | 1.64 |
| AAGCGTAG | 0.542 |
| TAGCGGAC | 0.794 |

| Sequence | relative CpG methylation activity |
| --- | --- |
| TCGCGGCC | 1.14 |
| AACCGTGG | 0.0794 |
| CCGCGCGC | 0.806 |
| AGACGCCA | 1.16 |
| CGACGCCC | 1.12 |
| CACCGAGG | 1.42 |
| TGTCGACA | 1.23 |
| CCCCGTTT | 0.447 |
| GCTCGCAG | 0.329 |
| GATCGATT | 1.53 |
| GAACGGGC | 1.64 |
| GGCCGTAT | 0.194 |
| GACCGCGA | 0.184 |
| CTGCGCCT | 1.15 |
| AAGCGCGG | 0.509 |
| TAGCGTGT | 0.49 |
| CAGCGTGG | 0.339 |
| CAGCGGGT | 0.92 |
| CAACGTCC | 1.3 |
| CCTCGTTA | 0.507 |
| TCCCGTTC | 0.979 |
| TCCCGCTT | 0.754 |
| GGTCGGCA | 1.6 |
| GATCGCGC | 0.626 |
| ATCCGGCA | 1.6 |

| Sequence | relative CpG methylation activity |
| --- | --- |
| CGACGGGA | 1.08 |
| GTACGCGT | 1.4 |
| TCACGTAG | 0.92 |
| CAACGATC | 1.94 |
| AGTCGAGA | 1.75 |
| TCACGTCG | 1.13 |
| GACCGGTA | 0.914 |
| GTACGATG | 1.48 |
| ACGCGTGA | 0.523 |
| GTACGACA | 1.65 |
| CAACGTGC | 0.968 |
| GGCCGATT | 1.08 |
| CTCCGTCC | 1.45 |
| GTGCGGAA | 0.787 |
| TTACGGTT | 1.85 |
| GAGCGACT | 0.768 |
| TTCCGTTC | 1.42 |
| TTTCGAGA | 1.76 |
| TACCGTCT | 0.708 |
| CATCGGAA | 0.839 |
| CCGCGTGT | 0.524 |
| TAACGGCA | 1.81 |
| GGGCGCGG | 0.379 |
| AGACGCAC | 0.875 |
| CCTCGCCA | 1.05 |

| Sequence | relative CpG methylation activity |
| --- | --- |
| CCACGTGG | 0.387 |
| AGACGCGT | 1.03 |
| CGGCGATT | 0.829 |
| CCACGTGC | 0.938 |
| CGTCGATT | 1.22 |
| ATACGCGA | 1.04 |
| TCGCGGGC | 0.971 |
| TAACGTGC | 0.966 |
| GCTCGACT | 1.22 |
| GCCCGAAC | 1.35 |
| CTACGGCG | 2.04 |
| ATTCGAGA | 1.83 |
| CTTCGTAT | 0.699 |
| TTTCGTGA | 0.347 |
| TAACGAGC | 1.81 |
| GGGCGGGC | 0.852 |
| CTACGTGA | 1.01 |
| TAACGACT | 1.34 |
| CCCCGCGT | 0.602 |
| AAACGAGC | 1.71 |
| ACACGTCT | 1.16 |
| TTACGAGA | 1.84 |
| TGTCGAAA | 1.27 |
| TTCCGGTA | 1.33 |
| TATCGTGC | 0.651 |

| Sequence | relative CpG methylation activity |
| --- | --- |
| CGGCGTGT | 0.302 |
| GGTCGCTT | 0.644 |
| GGCCGCCG | 0.495 |
| AAACGATC | 1.89 |
| AGACGTAG | 0.728 |
| GAGCGCGT | 0.502 |
| CTCCGATC | 1.67 |
| GCTCGTTA | 0.419 |
| TCTCGACC | 1.03 |
| AGCCGGCG | 0.999 |
| ACACGACA | 1.42 |
| TTCCGTGT | 0.344 |
| CCTCGCAC | 0.721 |
| AAACGCTC | 1.53 |
| CTTCGGAC | 1.04 |
| GCCCGGAA | 0.765 |
| AAACGGAC | 1.27 |
| CCTCGGGT | 1.5 |
| AATCGTCC | 0.952 |
| TGCCGAAA | 0.874 |
| ATTCGAGC | 1.55 |
| AGGCGTTC | 0.514 |
| TTTCGGGT | 2.02 |
| ACGCGTTT | 0.514 |
| CCACGATC | 1.74 |

| Sequence | relative CpG methylation activity |
| --- | --- |
| GTACGGAA | 1.46 |
| TTGCGCAG | 0.422 |
| GTACGGTT | 1.73 |
| CAGCGCTC | 0.807 |
| CTTCGCGA | 0.724 |
| ACGCGGTA | 0.86 |
| CGCCGAGT | 1.04 |
| CTACGGTC | 1.85 |
| GAACGCTA | 1.07 |
| TCCCGTTG | 0.343 |
| GGTCGAGA | 1.53 |
| AGCCGGCC | 1.03 |
| ACTCGAGG | 1.05 |
| TAGCGAAT | 0.756 |
| CTGCGACC | 1.28 |
| TGCCGTCC | 0.701 |
| GCACGCCC | 1.28 |
| GGTCGGAG | 0.478 |
| CAGCGGAA | 0.514 |
| TCCCGCAC | 0.746 |
| ACCCGGGA | 1.28 |
| GGCCGTTA | 0.262 |
| TGCCGGCA | 1.09 |
| CAGCGCGA | 0.392 |
| AAACGGGA | 1.64 |

| Sequence | relative CpG methylation activity |
| --- | --- |
| ACCCGTAG | 0.505 |
| AAGCGGCA | 1.15 |
| GGCCGAAG | 0.567 |
| TGACGAGC | 1.55 |
| CCGCGCGA | 0.545 |
| GGACGCAG | 0.536 |
| GTACGTTA | 1.09 |
| TGCCGGAG | 0.172 |
| TGACGCGG | 0.734 |
| GGCCGAAT | 0.721 |
| GAACGTCT | 1.26 |
| TCCCGTCA | 0.902 |
| AATCGAGG | 1.21 |
| GAACGACC | 1.25 |
| CTACGATG | 1.83 |
| GTCCGTTC | 1.25 |
| AACCGGAC | 0.54 |
| CTCCGACA | 1.69 |
| CGACGTGT | 0.313 |
| GCGCGTAC | 0.753 |
| ATCCGTTG | 0.439 |
| GCTCGAAG | 0.715 |

Source: the supplement of paper PMC7335073
